# Measurements as given in PubChem BioAssay AID651820 (National Center for Advancing Translational Sciences (NCATS), 2012).
# Hit rate of the full screen: of about 340,000 compounds, about 12,000 (3.5%) were called active. The shares of active, inactive and inconclusive entries below differ from those in the screen. Calls follow the shape of the dose curve; as a rule, active = well fitted inhibition curve with a large enough effect; inconclusive = small, poorly fitted or top-dose-only effect, or another doubt; inactive = no such curve, though single readings can be large or run the other way. No potency is given beside an inconclusive call; the fits are too rough.
# Test: qHTS Assay for Inhibitors of Hepatitis C Virus (HCV)
# Settings: Huh7.5.1 HCVcc-Cre (HCVcc is cell-culture hepatitis C virus) infection, luciferase reporter, 44 h; activity change, negative = inhibition: at 41.8 µM (top of the series)
# Method in brief: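 Luciferase read-out (15 sec integration) after a 15 min room-temperature substrate step quantifies HCVcc-Cre infection. Cells, 1,000 per well, had compound added 4 h post-plating, then virus at ~0.5 moi, and were cultured 44 h.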
# % is scaled to controls: 0 for no effect and ±100 for the full control effect; potency is read from the fitted curve at half-maximal effect; tags tell the direction and shape of the fitted curve.
SMILES,Potency,"activity change, negative = inhibition"
CCCCCC(=O)Nc1ccc(N2CCOCC2)c(S(=O)(=O)Nc2ccc(OC)cc2)c1,"inconclusive [inhibitor, single point]",–
O=C(Nc1ccccc1C(=O)N1CCCCCC1)c1ccccc1,–,inactive: 14.5%
COc1cccc(NC(=O)CN(C)C(=O)c2cc(-c3ccc(C)o3)nc3ccccc23)c1,"inconclusive [inhibitor, full curve, poor fit]",–
COc1ccc(CNC(=O)C2CC(c3cccc([N+](=O)[O-])c3)=NO2)cc1 (stereo not given),"inconclusive [inhibitor, single point]",–
CC(C)(C)c1cc(C(=O)NNS(=O)(=O)c2ccccc2)n[nH]1,"inconclusive [inhibitor, full curve, poor fit]",–
FC(F)(F)c1cccc(CNc2ncccc2-c2nc3cc(Cl)ccc3o2)c1,"inconclusive [inhibitor, single point]",–
CN1CCC(N(C)c2ncnc3ccc(Br)cc23)CC1,"inconclusive [inhibitor, single point]",–
Cc1nc2ccccc2c(=O)n1/N=C/c1cn[nH]c1-c1ccccc1,"inconclusive [inhibitor, partial curve]",–
CCC(=O)NC(=S)NNC(=O)c1ccc([N+](=O)[O-])cc1,–,inactive: 3.42%
Cc1cc2cc3c(cc2nc1SCc1ccc(C(=O)O)cc1)OCCO3,"inconclusive [inhibitor, single point]",–
COc1ccc(Cl)cc1NC(=O)CN1CCN(S(=O)(=O)N2CCCCC2)CC1,"inconclusive [inhibitor, partial curve]",–
NC(=S)N/N=C/c1ccc(-c2ccc([N+](=O)[O-])cc2)o1,"inconclusive [inhibitor, single point]",–
Cc1ccc(NC(=S)Nc2ccc(C(C)C)cc2)cc1S(=O)(=O)N1CCCCCC1,active: 6.31 µM,–
COCCn1c(=N)c(C(=O)NCCc2ccc(OC)cc2)cc2c(=O)n3cccc(C)c3nc21,–,inactive: 12.7%
CS(=O)(=O)Cc1ccc(C(=O)Nc2cccc(-c3nc4ccccc4[nH]3)c2)cc1,"inconclusive [inhibitor, single point]",–
Cc1ccc(Nc2nnc(SCc3nc4ccccc4c(=O)[nH]3)s2)cc1,–,inactive: -7.25%
CCCCNCCOCCSc1ccc(Cl)cc1,active: 7.94 µM,–
COc1ccc(NC(=O)C2COc3ccccc3O2)cc1S(=O)(=O)N1CCOCC1 (stereo not given),"inconclusive [inhibitor, partial curve]",–
CC(C)N1C(=O)C(Cc2nc3ccccc3c(=O)n2-c2ccccc2)c2ccccc21 (stereo not given),"inconclusive [inhibitor, partial curve]",–
CC(C)N(CCC(=O)c1ccc2ccccc2c1)Cc1ccccc1,–,inactive: -26.6%
Cc1ccc(-n2c(SCC(=O)NCc3ccco3)nc3sc(C)c(C)c3c2=O)cc1,"inconclusive [inhibitor, partial curve]",–
CCOc1ccccc1C1C2=C(COC2=O)Nc2cc3c(cc21)OCO3 (stereo not given),"inconclusive [inhibitor, partial curve]",–
CCOC(=O)/C=C1\CC(C(=O)OCC)Oc2ccccc21 (stereo not given),"inconclusive [inhibitor, single point]",–
Cn1nc(C(=O)Nc2ccc(Cl)cc2)cc1C(=O)Nc1ccc(Cl)cc1,–,inactive: 20%

SMILES,Potency,"activity change, negative = inhibition"
O=C(CSCc1cccc(Br)c1)N/N=C/c1ccc2c(c1)OCO2,"inconclusive [inhibitor, single point]",–
CCOc1ccccc1NC(=O)CCCc1ccc(OC)c(C)c1,"inconclusive [inhibitor, partial curve]",–
O=C(c1ccc(F)cc1F)N1CCN(S(=O)(=O)c2ccc3c(c2)OCCO3)CC1,"inconclusive [inhibitor, partial curve]",–
COc1ccc([C@H]2CC(=O)C=C(c3ccccc3C(F)(F)F)C2)cc1,"inconclusive [inhibitor, single point]",–
COc1cccc(CN(C)CC2CCCN(CCc3ccccc3C)C2)c1 (stereo not given),active: 11.2 µM,–
COc1ccc2c(c1OC)C(=O)N1N=C(c3ccccc3)CC21 (stereo not given),"inconclusive [inhibitor, full curve, poor fit]",–
COc1cccc(OCC(O)CN2CCN(c3ccc(Cl)cc3)CC2)c1 (stereo not given),"inconclusive [inhibitor, single point]",–
CNc1nc(N)c([N+](=O)[O-])c(N2CCCCCC2)n1,–,inactive: -15.5%
COc1ccc(Cn2c(=O)oc3ccc(C)cc32)cc1OC,active: 14.1 µM,–
O=C(c1ccccc1)N1CCN(C(=O)c2nn3c(C(F)(F)F)cc(-c4ccccc4)nc3c2Br)CC1,"inconclusive [inhibitor, partial curve]",–
CSc1ccccc1C(=O)N1CCC2(CC1)CC(=O)c1ccccc1O2,–,inactive: -12.7% [at 8.37 µM]
O=C(CSc1ncn[nH]1)Nc1ccccc1Sc1ccccc1,"inconclusive [inhibitor, partial curve, poor fit]",–
Cc1c(-c2ccccc2)c(=O)oc2cc(O)ccc12,–,inactive: 9.06%
O=C(c1cc(-c2cccs2)nc2ccccc12)N1CCN(CCO)CC1,"inconclusive [inhibitor, single point]",–
COc1ccc(-c2cc(C(=O)N3CCN(S(=O)(=O)c4ccccc4)CC3)[nH]n2)cc1,–,inactive: -19.9%
CCNC(=S)N(CCc1c(C)[nH]c2ccccc12)Cc1cc(OC)c(OC)c(OC)c1,"inconclusive [inhibitor, partial curve]",–
O=C(Nc1ccc(F)c(Cl)c1)c1ccc2c(=O)n3c(nc2c1)CCCCC3,active: 10 µM,–
NS(=O)(=O)c1ccc(CCNC(=O)C2CC(=O)N(Cc3ccccc3Cl)C2)cc1 (stereo not given),–,inactive: 12.5%
CCOC(=O)N1CCC(NC(=O)CN2C(=O)C(CC)Oc3ccc(C)cc32)CC1 (stereo not given),"inconclusive [inhibitor, single point]",–
Cc1nn(Cc2ccc(F)cc2)c(C)c1NC(=O)c1cc(-c2ccc3c(c2)OCO3)on1,"inconclusive [inhibitor, full curve]",–
COc1ccc(OCC(=O)N2CCN(C(=O)c3ccc(F)cc3)CC2)cc1,–,inactive: 10.8%
Cc1nc(CSc2nsc(/C=C/N(C)C)c2C#N)cs1,–,inactive: 2.6%
O=C(CN1C(=O)COc2ccc(S(=O)(=O)N3CCCC3)cc21)NCc1ccccn1,–,inactive: 12%
CCc1nnc(SCc2cccc(F)c2)nc1CC,"inconclusive [inhibitor, single point]",–

SMILES,Potency,"activity change, negative = inhibition"
COc1ccccc1CN1CCCCC1C(=O)O (stereo not given),–,inactive: 25.6%
Cc1cc(=O)oc2cc(OCC(=O)c3ccc4c(c3)NC(=O)CO4)ccc12,–,inactive: 7.49%
O=C(Nc1nc(-c2ccccc2)cs1)c1cccc(S(=O)(=O)N2CCN(Cc3ccccc3)CC2)c1,"inconclusive [inhibitor, single point]",–
CC1CCCCC1NC(=O)Cn1ncc2ccccc21 (stereo not given),–,inactive: 8.95%
O=C(NC(C(=O)N/N=C/c1ccccn1)c1n[nH]c(=O)c2ccccc12)c1ccccc1 (stereo not given),–,inactive: 6.92%
CC1CCc2c(C(=O)OCC(=O)Nc3cccc(S(=O)(=O)N4CCCCCC4)c3)csc2C1 (stereo not given),active: 7.08 µM,–
CCn1nc(C)cc1C(=O)NC1CCCc2c1cnn2-c1ccc(C)c(C)c1 (stereo not given),"inconclusive [inhibitor, full curve, poor fit]",–
C/C(=N\Nc1nc(C)cc(-c2ccccc2)n1)c1ccc(C)o1,"inconclusive [inhibitor, partial curve]",–
CCOC(=O)C(=O)Nc1cc(C)on1,–,inactive: 9.85%
CCOC(=O)C1CCN(C(=O)CN2C(=O)NC(C)(c3ccc4cc(OC)ccc4c3)C2=O)CC1 (stereo not given),"inconclusive [inhibitor, single point]",–
O=C(c1cccc(S(=O)(=O)N2CCCC2)c1)N1CCN(c2ccccc2)CC1,"inconclusive [inhibitor, partial curve]",–
CCCCCCCCCCn1ccc(=N)cc1,active: 22.4 µM,–
CCCN(CC(=O)Nc1ccccc1C)C(=O)c1ccc(-c2ccc([N+](=O)[O-])cc2)o1,"inconclusive [inhibitor, partial curve]",–
Cc1ccc(CN2C(=O)C(C)Nc3ncnc(N4CCN(c5ccccn5)CC4)c32)cc1 (stereo not given),"inconclusive [inhibitor, full curve, poor fit]",–
CCOC(=O)Nc1ccc(S(=O)(=O)NCc2ccccc2)cc1,"inconclusive [inhibitor, partial curve]",–
Cc1cccc(OCCOC(=O)c2c(-c3ccccc3)noc2C)c1,"inconclusive [inhibitor, partial curve]",–
CN(C)CCCN=Cc1c(O)n(Cc2ccccc2)c(=O)c2ccccc12,"inconclusive [inhibitor, single point]",–
CCCCN(C(=S)NC(=O)c1ccccc1)c1c(N)n(Cc2ccccc2)c(=O)[nH]c1=O,"inconclusive [inhibitor, single point]",–
Cc1cccc(NC(=O)C2CCN(S(=O)(=O)c3c(C)nn(C)c3C)CC2)n1,active: 25.1 µM,–
CC(=O)c1cccc(NC(=O)COC(=O)c2ccc(S(C)(=O)=O)c([N+](=O)[O-])c2)c1,active: 5.01 µM,–
CC(=O)Nc1ccc(S(=O)(=O)N2CCN=C2SCc2cccc(C)c2)cc1,"inconclusive [inhibitor, single point]",–
COc1ccc(Nc2nnc(SCC3CCCO3)s2)cc1 (stereo not given),"inconclusive [inhibitor, single point]",–
